# ± gives the standard deviation of the averaged measurements. Laboratory Escherichia coli strains with one amino-acid change in an essential protein, pooled on minimal glucose agar with carbenicillin or gentamicin at twice the control MIC (plus kanamycin and chloramphenicol for the plasmids), 48 h. Fold change of barcode share against drug-free plates; higher = less susceptible. Active = above 20 in both replicates (the paper's putatively resistant). '<' = one read or none on drug, '>' = one read or none on a drug-free plate. Shares are relative, so most strains fall below 1 when a few take over. Listed are strains with at least 15 reads on both drug-free plates, and hits; most hits rest on fewer reference reads. Replicate rank correlation about 0.5. Edits are read from barcodes.
# B1: ppc L178Q (protein)
# chain: MNEQYSALRSNVSMLGKVLGETIKDALGEHILERVETIRKLSKSSRAGNDANRQELLTTLQNLSNDELLPVARAFSQFLNLANTAEQYHSISPKGEAASNPEVIARTLRKLKNQPELSEDTIKKAVESLSLELVLTAHPTEITRRTLIHKMVEVNACLKQLDNKDIADYEHNQLMRRQRQLIAQSWHTDEIRKLRPSPVDEAKWGFAVVENSLWQGVPNYLRELNEQLEENLGYKLPVEFVPVRFTSWMGGDRDGNPNVTADITRHVLLLSRWKATDLFLKDIQVLVSELSMVEATPELLALVGEEGAAEPYRYLMKNLRSRLMATQAWLEARLKGEELPKPEGLLTQNEELWEPLYACYQSLQACGMGIIANGDLLDTLRRVKCFGVPLVRIDIRQESTRHTEALGELTRYLGIGDYESWSEADKQAFLIRELNSKRPLLPRNWQPSAETREVLDTCQVIAEAPQGSIAAYVISMAKTPSDVLAVHLLLKEAGIGFAMPVAPLFETLDDLNNANDVMTQLLNIDWYRGLIQGKQMVMIGYSDSAKDAGVMAASWAQYQAQDALIKTCEKAGIELTLFHGRGGSIGRGGAPAHAALLSQPPGSLKGGLRVTEQGEMIRFKYGLPEITVSSLSLYTGAILEANLLPPPEPKESWRRIMDELSVISCDVYRGYVRENKDFVPYFRSATPEQELGKLPLGSRPAKRRPTGGVESLRAIPWIFAWTQNRLMLPAWLGAGTALQKVVEDGKQSELEAMCRDWPFFSTRLGMLEMVFAKADLWLAEYYDQRLVDKALWPLGKELRNLQEEDIKVVLAIANDSHLMADLPWIAESIQLRNIYTDPLNVLQAELLHRSRQAEKEGQEPDPRVEQALMVTIAGIAAGMRNTG
# B2: ppc I461A (protein)
# chain: MNEQYSALRSNVSMLGKVLGETIKDALGEHILERVETIRKLSKSSRAGNDANRQELLTTLQNLSNDELLPVARAFSQFLNLANTAEQYHSISPKGEAASNPEVIARTLRKLKNQPELSEDTIKKAVESLSLELVLTAHPTEITRRTLIHKMVEVNACLKQLDNKDIADYEHNQLMRRLRQLIAQSWHTDEIRKLRPSPVDEAKWGFAVVENSLWQGVPNYLRELNEQLEENLGYKLPVEFVPVRFTSWMGGDRDGNPNVTADITRHVLLLSRWKATDLFLKDIQVLVSELSMVEATPELLALVGEEGAAEPYRYLMKNLRSRLMATQAWLEARLKGEELPKPEGLLTQNEELWEPLYACYQSLQACGMGIIANGDLLDTLRRVKCFGVPLVRIDIRQESTRHTEALGELTRYLGIGDYESWSEADKQAFLIRELNSKRPLLPRNWQPSAETREVLDTCQVAAEAPQGSIAAYVISMAKTPSDVLAVHLLLKEAGIGFAMPVAPLFETLDDLNNANDVMTQLLNIDWYRGLIQGKQMVMIGYSDSAKDAGVMAASWAQYQAQDALIKTCEKAGIELTLFHGRGGSIGRGGAPAHAALLSQPPGSLKGGLRVTEQGEMIRFKYGLPEITVSSLSLYTGAILEANLLPPPEPKESWRRIMDELSVISCDVYRGYVRENKDFVPYFRSATPEQELGKLPLGSRPAKRRPTGGVESLRAIPWIFAWTQNRLMLPAWLGAGTALQKVVEDGKQSELEAMCRDWPFFSTRLGMLEMVFAKADLWLAEYYDQRLVDKALWPLGKELRNLQEEDIKVVLAIANDSHLMADLPWIAESIQLRNIYTDPLNVLQAELLHRSRQAEKEGQEPDPRVEQALMVTIAGIAAGMRNTG
# B3: ppc I461W (protein)
# chain: MNEQYSALRSNVSMLGKVLGETIKDALGEHILERVETIRKLSKSSRAGNDANRQELLTTLQNLSNDELLPVARAFSQFLNLANTAEQYHSISPKGEAASNPEVIARTLRKLKNQPELSEDTIKKAVESLSLELVLTAHPTEITRRTLIHKMVEVNACLKQLDNKDIADYEHNQLMRRLRQLIAQSWHTDEIRKLRPSPVDEAKWGFAVVENSLWQGVPNYLRELNEQLEENLGYKLPVEFVPVRFTSWMGGDRDGNPNVTADITRHVLLLSRWKATDLFLKDIQVLVSELSMVEATPELLALVGEEGAAEPYRYLMKNLRSRLMATQAWLEARLKGEELPKPEGLLTQNEELWEPLYACYQSLQACGMGIIANGDLLDTLRRVKCFGVPLVRIDIRQESTRHTEALGELTRYLGIGDYESWSEADKQAFLIRELNSKRPLLPRNWQPSAETREVLDTCQVWAEAPQGSIAAYVISMAKTPSDVLAVHLLLKEAGIGFAMPVAPLFETLDDLNNANDVMTQLLNIDWYRGLIQGKQMVMIGYSDSAKDAGVMAASWAQYQAQDALIKTCEKAGIELTLFHGRGGSIGRGGAPAHAALLSQPPGSLKGGLRVTEQGEMIRFKYGLPEITVSSLSLYTGAILEANLLPPPEPKESWRRIMDELSVISCDVYRGYVRENKDFVPYFRSATPEQELGKLPLGSRPAKRRPTGGVESLRAIPWIFAWTQNRLMLPAWLGAGTALQKVVEDGKQSELEAMCRDWPFFSTRLGMLEMVFAKADLWLAEYYDQRLVDKALWPLGKELRNLQEEDIKVVLAIANDSHLMADLPWIAESIQLRNIYTDPLNVLQAELLHRSRQAEKEGQEPDPRVEQALMVTIAGIAAGMRNTG
# B4: ppc I461Q (protein)
# chain: MNEQYSALRSNVSMLGKVLGETIKDALGEHILERVETIRKLSKSSRAGNDANRQELLTTLQNLSNDELLPVARAFSQFLNLANTAEQYHSISPKGEAASNPEVIARTLRKLKNQPELSEDTIKKAVESLSLELVLTAHPTEITRRTLIHKMVEVNACLKQLDNKDIADYEHNQLMRRLRQLIAQSWHTDEIRKLRPSPVDEAKWGFAVVENSLWQGVPNYLRELNEQLEENLGYKLPVEFVPVRFTSWMGGDRDGNPNVTADITRHVLLLSRWKATDLFLKDIQVLVSELSMVEATPELLALVGEEGAAEPYRYLMKNLRSRLMATQAWLEARLKGEELPKPEGLLTQNEELWEPLYACYQSLQACGMGIIANGDLLDTLRRVKCFGVPLVRIDIRQESTRHTEALGELTRYLGIGDYESWSEADKQAFLIRELNSKRPLLPRNWQPSAETREVLDTCQVQAEAPQGSIAAYVISMAKTPSDVLAVHLLLKEAGIGFAMPVAPLFETLDDLNNANDVMTQLLNIDWYRGLIQGKQMVMIGYSDSAKDAGVMAASWAQYQAQDALIKTCEKAGIELTLFHGRGGSIGRGGAPAHAALLSQPPGSLKGGLRVTEQGEMIRFKYGLPEITVSSLSLYTGAILEANLLPPPEPKESWRRIMDELSVISCDVYRGYVRENKDFVPYFRSATPEQELGKLPLGSRPAKRRPTGGVESLRAIPWIFAWTQNRLMLPAWLGAGTALQKVVEDGKQSELEAMCRDWPFFSTRLGMLEMVFAKADLWLAEYYDQRLVDKALWPLGKELRNLQEEDIKVVLAIANDSHLMADLPWIAESIQLRNIYTDPLNVLQAELLHRSRQAEKEGQEPDPRVEQALMVTIAGIAAGMRNTG
# B5: ppc I461P (protein)
# chain: MNEQYSALRSNVSMLGKVLGETIKDALGEHILERVETIRKLSKSSRAGNDANRQELLTTLQNLSNDELLPVARAFSQFLNLANTAEQYHSISPKGEAASNPEVIARTLRKLKNQPELSEDTIKKAVESLSLELVLTAHPTEITRRTLIHKMVEVNACLKQLDNKDIADYEHNQLMRRLRQLIAQSWHTDEIRKLRPSPVDEAKWGFAVVENSLWQGVPNYLRELNEQLEENLGYKLPVEFVPVRFTSWMGGDRDGNPNVTADITRHVLLLSRWKATDLFLKDIQVLVSELSMVEATPELLALVGEEGAAEPYRYLMKNLRSRLMATQAWLEARLKGEELPKPEGLLTQNEELWEPLYACYQSLQACGMGIIANGDLLDTLRRVKCFGVPLVRIDIRQESTRHTEALGELTRYLGIGDYESWSEADKQAFLIRELNSKRPLLPRNWQPSAETREVLDTCQVPAEAPQGSIAAYVISMAKTPSDVLAVHLLLKEAGIGFAMPVAPLFETLDDLNNANDVMTQLLNIDWYRGLIQGKQMVMIGYSDSAKDAGVMAASWAQYQAQDALIKTCEKAGIELTLFHGRGGSIGRGGAPAHAALLSQPPGSLKGGLRVTEQGEMIRFKYGLPEITVSSLSLYTGAILEANLLPPPEPKESWRRIMDELSVISCDVYRGYVRENKDFVPYFRSATPEQELGKLPLGSRPAKRRPTGGVESLRAIPWIFAWTQNRLMLPAWLGAGTALQKVVEDGKQSELEAMCRDWPFFSTRLGMLEMVFAKADLWLAEYYDQRLVDKALWPLGKELRNLQEEDIKVVLAIANDSHLMADLPWIAESIQLRNIYTDPLNVLQAELLHRSRQAEKEGQEPDPRVEQALMVTIAGIAAGMRNTG
# B6: ppc L778A (protein)
# chain: MNEQYSALRSNVSMLGKVLGETIKDALGEHILERVETIRKLSKSSRAGNDANRQELLTTLQNLSNDELLPVARAFSQFLNLANTAEQYHSISPKGEAASNPEVIARTLRKLKNQPELSEDTIKKAVESLSLELVLTAHPTEITRRTLIHKMVEVNACLKQLDNKDIADYEHNQLMRRLRQLIAQSWHTDEIRKLRPSPVDEAKWGFAVVENSLWQGVPNYLRELNEQLEENLGYKLPVEFVPVRFTSWMGGDRDGNPNVTADITRHVLLLSRWKATDLFLKDIQVLVSELSMVEATPELLALVGEEGAAEPYRYLMKNLRSRLMATQAWLEARLKGEELPKPEGLLTQNEELWEPLYACYQSLQACGMGIIANGDLLDTLRRVKCFGVPLVRIDIRQESTRHTEALGELTRYLGIGDYESWSEADKQAFLIRELNSKRPLLPRNWQPSAETREVLDTCQVIAEAPQGSIAAYVISMAKTPSDVLAVHLLLKEAGIGFAMPVAPLFETLDDLNNANDVMTQLLNIDWYRGLIQGKQMVMIGYSDSAKDAGVMAASWAQYQAQDALIKTCEKAGIELTLFHGRGGSIGRGGAPAHAALLSQPPGSLKGGLRVTEQGEMIRFKYGLPEITVSSLSLYTGAILEANLLPPPEPKESWRRIMDELSVISCDVYRGYVRENKDFVPYFRSATPEQELGKLPLGSRPAKRRPTGGVESLRAIPWIFAWTQNRLMLPAWLGAGTALQKVVEDGKQSELEAMCRDWPFFSTRLGMLEMVFAKADLWAAEYYDQRLVDKALWPLGKELRNLQEEDIKVVLAIANDSHLMADLPWIAESIQLRNIYTDPLNVLQAELLHRSRQAEKEGQEPDPRVEQALMVTIAGIAAGMRNTG
# Target: Escherichia coli (laboratory strain)
# Assay: barcode share on antibiotic plates over drug-free plates; higher = less susceptible
# Details: antibiotic: carbenicillin; 2× MIC (3.1 µg/mL)
# Protocol: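 A pool of E. coli strains, each edited to carry one amino-acid change in an essential protein, was grown for 48 h on minimal glucose agar with or without antibiotic; strain barcodes were sequenced; mean of two replicates.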
row,Protein,fold change of barcode share
1,B1,0.423 ± 0.12
2,B2,0.301 ± 0.071
3,B3,0.473 ± 0.08
4,B4,0.586 ± 0.025
5,B5,0.417 ± 0.15
6,B6,0.776 ± 0.17

# Same assay, conditions: antibiotic: gentamicin; 2× MIC (MIC 0.45 µg/mL)
row,Protein,fold change of barcode share
1,B1,< 0.00797
2,B2,0.00806 ± 0.0011
3,B3,0.00831 ± 0.0058
4,B4,0.00895 ± 0.0064
5,B5,< 0.006
6,B6,0.0115 ± 0.0065
